From PubChem BioAssay AID651820 (National Center for Advancing Translational Sciences (NCATS), 2012)
Hit rate of the full screen: of about 340,000 compounds, about 12,000 (3.5%) were called active. Inconclusive means that the source gave no clear call. Such entries were picked first, then a sample of the others. Calls follow the shape of the dose curve; as a rule, active = well fitted inhibition curve with a large enough effect; inconclusive = small, poorly fitted or top-dose-only effect, or another doubt; inactive = no such curve, though single readings can be large or run the other way. Potencies of inconclusive entries are left out as doubtful fits.

Test: qHTS Assay for Inhibitors of Hepatitis C Virus (HCV)
Settings: Huh7.5.1 HCVcc-Cre (HCVcc is cell-culture hepatitis C virus) infection, luciferase reporter, 44 h; activity change, negative = inhibition: at 41.8 µM (top of the series)
Outline: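 Seed cells (1,000/well) for 4 h; treat with compound and infect with HCVcc-Cre, moi about 0.5. Incubate 44 h, then detect luciferase activity.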
% is scaled to controls: 0 for no effect and ±100 for the full control effect; potency is read from the fitted curve at half-maximal effect; tags tell the direction and shape of the fitted curve.

Row | SMILES | Potency | activity change, negative = inhibition
1 | Cc1cccc(N2CCN(S(=O)(=O)c3ccc4c(c3)CC(C)N4C(=O)C3CC3)CC2)c1C (configuration not stated) | inconclusive [inhibitor, single point] | 
2 | CCOC(=O)C1=C(CCc2ccccc2)NC(=O)NC1c1ccc2ccccc2c1 (configuration not stated) | inconclusive [inhibitor, single point] | 
3 | CCC(C)N1CC23C=CC(O2)C(C(=O)OC)C3C1=O (configuration not stated) |  | inactive: 7.66%
4 | CCOCCCNC(=O)c1cc(Cl)c(NC(=O)C2=C(C)OCCS2)cc1OC | inconclusive [inhibitor, partial curve] | 
5 | COC(=O)C1=C(c2ccc(S(C)(=O)=O)cc2)C[C@@H]2CC[C@H]1N2C(=O)NC1CCCCC1 |  | inactive: 5.44%
6 | CC(=O)Nc1nnc(SCc2ccc(C(=O)Nc3ccccc3F)cc2)s1 | inconclusive [inhibitor, partial curve, poor fit] | 
7 | Cc1ccc2nc(Cl)c(CN(C(=O)c3cnccn3)C3CCCCC3)cc2c1 | inconclusive [inhibitor, single point] | 
8 | COc1ccc(Nc2nc3ccc(C)cc3cc2C#N)c(OC)c1 | inconclusive [inhibitor, partial curve] | 
9 | COc1ccc(-c2cn3c(C)c(C(=O)NCCN4CCOCC4)sc3n2)cc1 | inconclusive [inhibitor, partial curve] | 
10 | O=[N+]([O-])c1ccc(N/N=C/c2sc(N3CCOCC3)nc2-c2ccccc2)c(S(=O)(=O)Nc2ccc(Cl)cc2)c1 | active: 2.51 µM | 
11 | CCC(C)NC(=O)c1cc(-c2ccc(OC)cc2)on1 (configuration not stated) | inconclusive [inhibitor, single point] | 
12 | CCOC(=O)c1c(C)c(C(=O)Nc2ccc(N(C)C)cc2)c(C)n1CC | inconclusive [inhibitor, partial curve] | 
13 | CC1CCN(C(=O)COc2ncnc3ccccc23)CC1 |  | inactive: 12.5%
14 | CN(Cc1ccccc1)c1nc2nonc2nc1N1CCCC(CN2CCCC2=O)C1 (configuration not stated) |  | inactive: 6.52%
15 | COC(=O)c1cc2c(ccn2-c2ccc(F)cc2)n1Cc1ccc(C#N)cc1 | inconclusive [inhibitor, partial curve] | 
16 | O=C(NC(=S)NCC1CCCO1)c1ccccc1 (configuration not stated) |  | inactive: -4.01%
17 | Cc1ccc2nc(/C(C#N)=C\c3ccc([N+](=O)[O-])o3)[nH]c2c1 | inconclusive [inhibitor, single point] | 
18 | COC(=O)C1=C(N)OC(C)=C(C(C)=O)C12C(=O)N(C)c1ccccc12 (configuration not stated) |  | inactive: 35.9%
19 | Cc1sc2c(c1C)CN(C1CC(C)(C)NC(C)(C)C1)CN2C(=O)c1ccco1 | inconclusive [inhibitor, partial curve] | 
20 | COc1ccccc1N1CCN(c2cc(=O)n(-c3ccccc3Cl)c(=O)[nH]2)CC1 |  | inactive: 12.7%
21 | CCOc1ccccc1OCC(=O)NCc1ccco1 |  | inactive: 7.6%
22 | Cn1c(SCC(=O)NCc2ccco2)nnc1C1CCCC1 |  | inactive: 3.26%
23 | Cc1sc(N)nc1-c1ccc2c(c1)OCCO2 |  | inactive: 14.4%
24 | CCN(c1ccccc1)S(=O)(=O)c1ccc(OC)c(NC(=O)Cc2ccc(F)cc2)c1 | inconclusive [inhibitor, single point] | 

Row | SMILES | Potency | activity change, negative = inhibition
25 | CC1(c2ccccc2Cl)NC(=O)N(CC(=O)Nc2cccnc2Cl)C1=O (configuration not stated) | inconclusive [inhibitor, single point] | 
26 | COc1cc(C2Nc3ccccc3C(=O)N2c2ccc3c(c2)OCCO3)ccc1OCC(C)C (configuration not stated) | inconclusive [inhibitor, single point] | 
27 | O=C(c1ccccn1)C1CCCN(Cc2nc(Cc3cccc(F)c3)no2)C1 (configuration not stated) | inconclusive [inhibitor, single point] | 
28 | C=C(C)[C@@H]1CCC2(C(=O)O)CC[C@]3(C)[C@H](CC[C@@H]4[C@@]5(C)CCC(=O)C(C)(C)[C@@H]5CC[C@]43C)[C@@H]12 (some centres not stated) | inconclusive [inhibitor, single point] | 
29 | Cc1occc1C(=O)N/N=C/c1ccc(OCc2ccccc2)cc1 | inconclusive [inhibitor, single point] | 
30 | Cc1ccccc1[C@@]1(C)ON(c2ccccc2C(F)(F)F)C1=O | inconclusive [inhibitor, single point] | 
31 | C/C(=N\NC(=O)c1cccc(N/N=C(\C)c2ccc([N+](=O)[O-])cc2)c1)c1ccc([N+](=O)[O-])cc1 |  | inactive: -26.6%
32 | COC(=O)C1C(=O)c2c([nH]c(C(=O)OCCOC(C)C)c2C)CC1C (configuration not stated) | inconclusive [inhibitor, single point] | 
33 | CC1C/C(=N/Nc2nc3ccccc3[nH]2)CC(C)(C)C1 (configuration not stated) | inconclusive [inhibitor, single point] | 
34 | O=C(CC1OCC2CCCN2C1=O)Nc1ccc([N+](=O)[O-])cc1 (configuration not stated) |  | inactive: -0.427%
35 | O=C(Nc1cc(Cl)cc(Cl)c1)c1cnn2cccnc12 |  | inactive: 7.12%
36 | Oc1c(C(c2ccc(Cl)cc2)N2CCCC2)cc(Cl)c2cccnc12 (configuration not stated) | inconclusive [inhibitor, single point] | 
37 | COc1cc(/C=C2\C(=N)N3N=CSC3=NC2=O)cc(Br)c1OC(=O)c1ccco1 |  | inactive: 17.5%
38 | CCn1c(SCC(=O)N2CCN(c3ccccc3)CC2)nnc1-c1ccoc1C | inconclusive [inhibitor, single point] | 
39 | Cc1ccc(NC2c3ncccc3C(=O)N2Cc2cccs2)cc1C (configuration not stated) |  | inactive: -11.5%
40 | CC(=O)c1ccc(C)cc1OC(=O)c1cccc(F)c1 |  | inactive: 17%
41 | COc1cccc(OC(=O)c2ccccc2)c1OC(=O)c1ccccc1 |  | inactive: -20.4%
42 | Cc1cccc(S(=O)(=O)N/N=c2\sc3ccccc3n2C)c1 |  | inactive: 9.37%
43 | CCOC(=O)N1CCN(CC(O)COc2ccc(OC)cc2C(C)(C)C)CC1 (configuration not stated) |  | inactive: 4.82%
44 | CCCc1cc(=O)oc2cc3occ(C)c3cc12 | active: 2.24 µM | 
45 | Cc1cc(C)cc(NC(=O)c2ccc(CN3CCc4ccccc4C3)cc2)c1 | inconclusive [inhibitor, partial curve] | 
46 | CCOC(=O)COc1ccc(C(=O)NC2CCCCC2)cc1 |  | inactive: -1.13%
47 | CCOc1ccc(Br)cc1C(=O)N/N=C/c1cccnc1 | inconclusive [inhibitor, partial curve] | 
